In the supplement of paper PMC12217912:
Some of the results follow. Sequences were assembled here from the parent chain. Values near 0.05 are background.

B1: TEV protease; numbered along this chain (parent)
chain: MGESLFKGPRDYNPISSSICHLTNESDGHTTSLYGIGFGPFIITNKHLFRRNNGTLVVQSLHGVFKVKDTTTLQQHLVDGRDMIIIRMPKDFPPFPQKLKFREPQREERICLVTTNFQTKSMSSMVSDTSCTFPSGDGIFWKHWIQTKDGQCGSPLVSTRDGFIVGIHSASNFTNTNNYFTSVPKNFMELLTNQEAQQWVSGWRLNADSVLWGGHKVFMVKPEEPFQPVKEATQL

Variants of: B1
Test: raw area under fraction-flipped curve 0-4 h after induction (AUC4h, not background-subtracted), DNA-recorder readout of cleavage of the substrate (dimensionless); higher = more cleavage of the substrate by the protease variant
Settings: temperature: 34 °C; time window: 0-4 h after rhamnose induction
Procedure: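 In vivo DNA recorder in E. coli TOP10(DE3) ΔrhaA at 34 °C. Each TEVp single-site mutant (parent TEVp 0) is paired with a single-site variant of the 7-mer TEVs (canonical ENLYFQ|S). The substrate sits between flexible linkers in a Bxb1-sfGFP-TEVs-SsrA fusion, so cleavage stabilises Bxb1 and speeds flipping of a recombination array, read by NGS. The value is the raw area under the fraction-flipped curve over 0-4 h after rhamnose induction (AUC4h), with ≥20 reads per time point. It is not background-subtracted; inactive controls average about 0.047.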
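Also: Bxb1 expression induced with 0.2% (w/v) L-rhamnose at OD600 near 0.5, cultures sampled hourly, flipped fraction per protease–substrate barcode pair counted by paired-end Illumina sequencing.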

MGESLFKGPRDYNPISSSICHLTNESDGHTTSLYGIGFGPFIITNKHLFRRNNGTLVVQSLHGVFKVKDTTTLQQHLVDGRDMIIIRMPKDFPPFPQKLKFREPQREERICLVTTNFQTKSMSSMVSDTSCTFPSGDGIFWKHWIQTKDGQCGSPLVSTRDGFIVGIHSASNFTNTNNYFTSVPKNFMELLTNQEAQQWVSGWRLNADSVLWGGHKVFMVYPEEPFQPVKEATQL [K221Y]
area with substrate ENAYFQS: 0.0627
area with substrate ENCYFQS: 0.0613
area with substrate ENDYFQS: 0.0638
area with substrate ENEYFQS: 0.0548
area with substrate ENGYFQS: 0.063
area with substrate ENHYFQS: 0.0647
area with substrate ENIYFQS: 0.0853
area with substrate ENKYFQS: 0.0554
area with substrate ENNYFQS: 0.0553
area with substrate ENPYFQS: 0.0569
area with substrate ENQYFQS: 0.0432
area with substrate ENRYFQS: 0.0756
area with substrate ENSYFQS: 0.0464
area with substrate ENVYFQS: 0.0668

MGESLFKGPRDYNPISSSICHLTNESDGHTTSLYGIGFGPFIITNKHLFRRNNGTLVVQSLHGVFKVKDTTTLQQHLVDGRDMIIIRMPKDFPPFPQKLKFREPQREERICLVTTNFQTKSMSSMVSDTSCTFPSGDGIFWKHWIQTKDGQCGSPLVSTRDGFIVGIHSASNFTNTNNYFTSVPKNFMELLTNQEAQQWVSGWRLNADSVLWGGHKVFMVKPETPFQPVKEATQL [E224T]
area with substrate ENAYFQS: 0.0646
area with substrate ENCYFQS: 0.0732
area with substrate ENDYFQS: 0.0627
area with substrate ENEYFQS: 0.0765
area with substrate ENFYFQS: 0.0609
area with substrate ENHYFQS: 0.0641
area with substrate ENMYFQS: 0.0823
area with substrate ENQYFQS: 0.0692
area with substrate ENRYFQS: 0.068
area with substrate ENSYFQS: 0.061
area with substrate ENTYFQS: 0.0642
area with substrate ENWYFQS: 0.0576
area with substrate ENYYFQS: 0.0513

MGESLFKGPRDYNPISSSICHLTNESDGHTTSLYGIGFGPFIITNKHLFRRNNGTLVVQSLHGVFKVKDTTTLQQHLVDGRDMIIIRMPKDFPPFPQKLKFREPQREERICLVTTNFQTKSMSSMVSDTSCTFPSGDGIFWKHWIQTKDGQCGSPLVSTRDGFIVGIHSASNFTNTNNYFTSVPKNFMELLTNQEAQQWVSGWRLNADSVLWGGHKVFMVKPEMPFQPVKEATQL [E224M]
area with substrate ENAYFQS: 0.0552
area with substrate ENCYFQS: 0.0641
area with substrate ENDYFQS: 0.0623
area with substrate ENEYFQS: 0.0354
area with substrate ENIYFQS: 0.0963
area with substrate ENKYFQS: 0.0567
area with substrate ENMYFQS: 0.105
area with substrate ENNYFQS: 0.0644
area with substrate ENPYFQS: 0.0591
area with substrate ENQYFQS: 0.0627
area with substrate ENRYFQS: 0.0601
area with substrate ENSYFQS: 0.0507
area with substrate ENTYFQS: 0.0597
area with substrate ENVYFQS: 0.0707
area with substrate ENYYFQS: 0.0651

MGESLFKGPRDYNPISSSICHLTNESDGHTTSLYGIGFGPFIITNKHLFRRNNGTLVVQSLHGVFKVKDTTTLQQHLVDGRDMIIIRMPKDFPPFPQKLKFREPQREERICLVTTNFQTKSMSSMVSDTSCTFPSGDGIFWKHWIQTKDGQCGSPLVSTRDGFIVGIHSASNFTNTNNYFTSVPKNFMELLTNQEAQQWVSGWRLNADSVLWGGHKVFMVKPEEPFQPVKGATQL [E231G]
area with substrate ENAYFQS: 0.0487
area with substrate ENCYFQS: 0.0489
area with substrate ENDYFQS: 0.0651
area with substrate ENEYFQS: 0.0646
area with substrate ENFYFQS: 0.0618
area with substrate ENGYFQS: 0.0839
area with substrate ENHYFQS: 0.0614
area with substrate ENIYFQS: 0.102
area with substrate ENKYFQS: 0.0647
area with substrate ENNYFQS: 0.0628
area with substrate ENPYFQS: 0.0538
area with substrate ENQYFQS: 0.0471
area with substrate ENRYFQS: 0.043
area with substrate ENSYFQS: 0.0665
area with substrate ENTYFQS: 0.0593
area with substrate ENVYFQS: 0.0994
area with substrate ENWYFQS: 0.0638
area with substrate ENYYFQS: 0.0484

MGESLFKGPRDYNPISSSICHLTNESDGHTTSLYGIGFGPFIITNKHLFRRNNGTLVVQSLHGVFKVKDTTTLQQHLVDGRDMIIIRMPKDFPPFPQKLKFREPQREERICLVTTNFQTKSMSSMVSDTSCTFPSGDGIFWKHWIQTKDGQCGSPLVSTRDGFIVGIHSASNFTNTNNYFTSVPKNFMELLTNQEAQQWVSGWRLNADSVLWGGHKVFMVKPEEPFQPVKMATQL [E231M]
area with substrate ENAYFQS: 0.059
area with substrate ENCYFQS: 0.0695
area with substrate ENEYFQS: 0.0499
area with substrate ENFYFQS: 0.0603
area with substrate ENGYFQS: 0.0579
area with substrate ENIYFQS: 0.119
area with substrate ENKYFQS: 0.0787
area with substrate ENMYFQS: 0.0568
area with substrate ENPYFQS: 0.0587
area with substrate ENQYFQS: 0.0639
area with substrate ENRYFQS: 0.0609
area with substrate ENSYFQS: 0.0482
area with substrate ENTYFQS: 0.0737
area with substrate ENVYFQS: 0.0728

MGESLFKGPRDYNPISSSICHLTNESDGHTTSLYGIGFGPFIITNKHLFRRNNGTLVVQSLHGVFKVKDTTTLQQHLVDGRDMIIIRMPKDFPPFPQKLKFREPQREERICLVTTNFQTKSMSSMVSDTSCTFPSGDGIFWKHWIQTKDGQCGSPLVSTRDGFIVGIHSASNFTNTNNYFTSVPKNFMELLTNQEAQQWVSGWRLNADSVLWGGHKVFMVKPEEPFPPVKEATQL [Q227P]
area with substrate ENAYFQS: 0.0626
area with substrate ENDYFQS: 0.0687
area with substrate ENEYFQS: 0.0517
area with substrate ENFYFQS: 0.0559
area with substrate ENGYFQS: 0.0037
area with substrate ENHYFQS: 0.0643
area with substrate ENIYFQS: 0.104
area with substrate ENNYFQS: 0.0641
area with substrate ENQYFQS: 0.0668
area with substrate ENSYFQS: 0.0577
area with substrate ENVYFQS: 0.082

MGESLFKGPRDYNPISSSICHLTNESDGHTTSLYGIGFGPFIITNKHLFRRNNGTLVVQSLHGVFKVKDTTTLQQHLVDGRDMIIIRMPKDFPPFPQKLKFREPQREERICLVTTNFQTKSMSSMVSDTSCTFPSGDGIFWKHWIQTKDGQCGSPLVSTRDGFIVGIHSASNFTNTNNYFTSVPKNFMELLTNQEAQQWVSGWRLNADSVLWGGHKVFMVKPEEPFEPVKEATQL [Q227E]
area with substrate ENAYFQS: 0.0661
area with substrate ENCYFQS: 0.0648
area with substrate ENDYFQS: 0.0713
area with substrate ENEYFQS: 0.0281
area with substrate ENFYFQS: 0.0566
area with substrate ENGYFQS: 0.0561
area with substrate ENHYFQS: 0.0501
area with substrate ENIYFQS: 0.121
area with substrate ENKYFQS: 0.0684
area with substrate ENQYFQS: 0.0606
area with substrate ENSYFQS: 0.0752
area with substrate ENTYFQS: 0.0687
area with substrate ENVYFQS: 0.0774
area with substrate ENWYFQS: 0.0044

MGESLFKGPRDYNPISSSICHLTNESDGHTTSLYGIGFGPFIITNKHLFRRNNGTLVVQSLHGVFKVKDTTTLQQHLVDGRDMIIIRMPKDFPPFPQKLKFREPQREERICLVTTNFQTKSMSSMVSDTSCTFPSGDGIFWKHWIQTKDGQCGSPLVSTRDGFIVGIHSASNFTNTNNYFTSVPKNFMELLTNQEAQQWVSGWRLNADSVLWGGHKVFMVKPEEPFMPVKEATQL [Q227M]
area with substrate ENAYFQS: 0.0548
area with substrate ENCYFQS: 0.0713
area with substrate ENDYFQS: 0.0636
area with substrate ENEYFQS: 0.0656
area with substrate ENFYFQS: 0.0519
area with substrate ENGYFQS: 0.0489
area with substrate ENHYFQS: 0.0627
area with substrate ENIYFQS: 0.128
area with substrate ENKYFQS: 0.0566
area with substrate ENPYFQS: 0.0507
area with substrate ENQYFQS: 0.0645
area with substrate ENRYFQS: 0.0706
area with substrate ENSYFQS: 0.0657
area with substrate ENVYFQS: 0.0691
area with substrate ENWYFQS: 0.0548
area with substrate ENYYFQS: 0.0389

MGESLFKGPRDYNPISSSICHLTNESDGHTTSLYGIGFGPFIITNKHLFRRNNGTLVVQSLHGVFKVKDTTTLQQHLVDGRDMIIIRMPKDFPPFPQKLKFREPQREERICLVTTNFQTKSMSSMVSDTSCTFPSGDGIFWKHWIQTKDGQCGSPLVSTRDGFIVGIHSASNFTNTNNYFTSVPKNFMELLTNQEAQQWVSGWRLNADSVLWGGHKVFMVKVEEPFQPVKEATQL [P222V]
area with substrate ENAYFQS: 0.0542
area with substrate ENCYFQS: 0.0628
area with substrate ENDYFQS: 0.0636
area with substrate ENEYFQS: 0.0694
area with substrate ENFYFQS: 0.0569
area with substrate ENGYFQS: 0.0536
area with substrate ENHYFQS: 0.061
area with substrate ENIYFQS: 0.0851
area with substrate ENKYFQS: 0.0575
area with substrate ENMYFQS: 0.0662
area with substrate ENNYFQS: 0.0543
area with substrate ENPYFQS: 0.0694
area with substrate ENQYFQS: 0.0549
area with substrate ENRYFQS: 0.0551
area with substrate ENSYFQS: 0.0541
area with substrate ENTYFQS: 0.0831
area with substrate ENVYFQS: 0.0739
area with substrate ENWYFQS: 0.0404
area with substrate ENYYFQS: 0.053
